# Measurements: PubChem BioAssay AID493208 (National Center for Advancing Translational Sciences (NCATS), 2011)
# Among all 44,000 compounds or so, about 340 (0.77%) were called active. Roughly 5% stayed inconclusive and do not appear here. Calls follow the shape of the dose curve; as a rule, active = well fitted inhibition curve with a large enough effect; inconclusive = small, poorly fitted or top-dose-only effect; inactive = flat fitted curve, though single readings scatter. The list shows a part of the results.
# Experiment: Acumen qHTS Assay for Inhibitors of the mTORC1 Signaling Pathway in MEF (Tsc2-/-, p53-/-) Cells: Sytravon;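 also: plate controls were DMSO for no effect and rapamycin for full effect; nearly all actives have a fitted effect of over 50% in size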
# Conditions: phospho-rpS6 immunofluorescence/PI, 24 h; series mostly up to 38.3 µM; activity change, negative = inhibition: at the top concentration
# Summary of the method: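 Cell-based qHTS: Tsc2-/- p53-/- MEF, 24 h cpd, 37 °C; fix/perm, anti-phospho-S6 Alexa-488 + PI; Acumen 488 nm scan; pS6/PI ratio, % positive cells; rapamycin 7.5 nM = inhibition ref; PI count = viability.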
row,SMILES,"activity change, negative = inhibition"
1,COc1ccc(CCNC(=O)c2cc3c(=O)n4cccc(C)c4nc3n2C)cc1,inactive: -0.369%
2,Cc1ccc(-c2csc(-c3c(N)c(C(=O)c4ccc5c(c4)OCO5)n4ccccc34)n2)cc1C,inactive: 0.128%
3,Cc1cccc(CSCCNC(=O)C2CCN(S(=O)(=O)Cc3ccccc3)CC2)c1,inactive: 4.44%
4,COc1ccc2c(C)c(CCC(=O)NCc3cccc(Cl)c3)c(=O)oc2c1,inactive: 0.309%
5,CCC(CC)C(=O)Nc1nnc(S(=O)(=O)N(C)c2cc(C)cc(C)c2)s1,inactive: 3.64%
6,Cc1cc(C)cc(-n2ccn(CC(=O)NCCc3ccccc3)c(=O)c2=O)c1,inactive: 4.6%
7,COc1cc2c(cc1OC)C(COc1ccc3c(C)cc(=O)oc3c1)N(C(=O)Cc1ccc(F)cc1)CC2 (centres undefined),inactive: 6.62%
8,CCOC(=O)c1c(NC(C)=O)c2c3c(sc2n1Cc1c(C)cc(C)cc1C)CCCC3,inactive: -10%
9,CCOc1ccc(N(CC(=O)NCc2ccc(OC)cc2)S(=O)(=O)c2c(C)[nH]c(=O)[nH]c2=O)cc1,inactive: -6.2%
10,COc1cccc(C(=O)N(Cc2cccc(F)c2)C2CCS(=O)(=O)C2)c1 (centres undefined),inactive: 3.08%
11,COc1ccc(Cn2ccnc2SCC(=O)Nc2ccc3c(c2)OCCO3)cc1,inactive: 2.73%
12,Cc1ccc2c(c1)N(CC(=O)Nc1ccccc1C(F)(F)F)C(=O)c1cccnc1O2,inactive: -0.948%
13,Cc1c(Cl)cccc1NC(=O)c1oc2ccc(S(=O)(=O)N3CCCCCC3)cc2c1C,inactive: 11.4%
14,CCOC(=O)c1cc2c(=O)n3ccccc3nc2n(Cc2ccco2)c1=NC(=O)c1ccc(C(C)(C)C)cc1,inactive: 16.4%
15,COc1cccc(OC)c1C(=O)Nc1ccc(-c2nc3ncccc3o2)cc1,inactive: -0.45%
16,O=C(Nc1cccc(F)c1)c1ccc2oc(=O)n(Cc3ccccc3)c2c1,inactive: 9.79%
17,O=C(Cn1c(=O)n(-c2ccccc2)c(=O)c2c3c(sc21)CCC3)c1ccc(F)cc1,inactive: -10.4%
18,O=C(NCc1ccccc1)c1ccc2c(c1)N(Cc1ccccc1F)C(=O)c1ccccc1S2=O (centres undefined),inactive: 4.16%
19,Cc1ccc(Sc2ccc(N3CCC(C(=O)Nc4cc(C)cc(C)c4)CC3)nn2)cc1,inactive: -3.91%
20,Cc1ccc(C2CC(=O)n3nc(-c4ccc(Cl)cc4)nc3S2)cc1 (centres undefined),inactive: 7.5%

row,SMILES,"activity change, negative = inhibition"
1,CCc1ccc(NC(=O)CSc2nc3c([nH]c4ccccc43)c(=O)n2-c2ccc(C)cc2)cc1,inactive: -10.7%
2,Cc1ccc(CNC(=O)CCS(=O)(=O)c2cc3c4c(c2)CCN4C(=O)CC3)cc1,inactive: 0.311%
3,CCOC(=O)c1scc(-c2ccccc2)c1S(=O)(=O)N1CCN(c2ccc(Cl)cc2)CC1,inactive: -14.9%
4,Cc1ccc(NC(=O)c2ccc(NC(=O)N3CCSc4ncccc43)cc2)c(Cl)c1,inactive: -1.27%
5,COc1cccc(N2CCN(C(=O)c3cnc4c(-c5ccccc5)c(C)nn4c3C)CC2)c1,inactive: 1.89%
6,COc1ccccc1C(=O)Nc1c(C(=O)Nc2cc(Cl)ccc2C)sc2nc(C)cc(C)c12,inactive: 6.35%
7,COc1cccc(CN2C(=O)c3ccccc3Sc3ccc(C(=O)NCc4ccccc4)cc32)c1,inactive: -8.85%
8,O=C(Nc1ccccc1)c1cnc(N2CCCCC2)c2ccccc12,inactive: 0.7%
9,COc1ccc(-c2cc(C)no2)cc1S(=O)(=O)N1CCN(c2cccc(C)c2)C(C)C1 (centres undefined),inactive: -9.19%
10,Cc1ccccc1NC(=O)NCCc1c[nH]c2ccccc12,inactive: 1.87%
11,COc1cccc2cc(C(=O)N3CCN(c4cc(C)ccc4C)CC3)c(=O)oc12,inactive: 8.46%
12,Fc1ccccc1Nc1c2c(nc3ccccc13)CCC2,inactive: 3.11%
13,Cc1nc(SCC(=O)N2CCN(c3ccccc3)CC2)[nH]c(=O)c1C,inactive: -2.25%
14,CCc1ccccc1NC(=O)CN(C)S(=O)(=O)c1cccc2nsnc12,inactive: 0.148%
15,COc1ccc(-c2ccc(NS(=O)(=O)c3ccc(NC(C)=O)cc3)cc2)nn1,inactive: -2.88%
16,CCN(CC)c1ccc(NC(=O)c2c(C)nn(-c3ccc(F)cc3)c2-n2cccc2)c(C)c1,inactive: -10.2%
17,COc1ccc(OC)c(NC(=O)c2c(NCc3cccs3)sc3c2CCCCC3)c1,inactive: -0.786%
18,COc1ccc(-c2noc(N3CCC(C(=O)Nc4cccc(C)c4C)CC3)n2)cc1,inactive: -3.41%
19,CCc1ccc(NC(=O)CSc2nc3nc(C)cc(C)n3n2)cc1,inactive: -11.5%
20,COc1ccc(CCNC(=O)c2ccc3c(c2)CCN3S(=O)(=O)c2ccccc2)cc1,inactive: -4.46%

row,SMILES,"activity change, negative = inhibition"
1,CCOc1cc(CNC(=O)c2cc(-c3ccccc3)n[nH]2)cc(OCC)c1OCC,inactive: -8.28%
2,O=C(CN1C(=O)C2(SCC(=O)N2c2ccc(F)c(F)c2)c2ccccc21)NCCc1ccccc1 (centres undefined),inactive: -7.07%
3,COc1ccc(NC(=O)c2oc3ccc(S(=O)(=O)N4CCOCC4)cc3c2C)c(OC)c1,inactive: -9.76%
4,COc1ccc(CCNC(=O)c2cnn(-c3ccc(F)cc3)c2C2CCN(C(=O)OC(C)(C)C)CC2)cc1OC,inactive: 0.833%
5,COc1ccc(N2CCN(C(=O)c3cc4c(=O)n(Cc5cccnc5)ccc4nc3C)CC2)cc1,inactive: 10.9%
6,CCOc1cc(C(c2c(C)[nH]n(-c3ccccc3)c2=O)c2c(C)[nH]n(-c3ccccc3)c2=O)ccc1O,inactive: 6.79%
7,Cc1[nH]c2ccc(C(=O)N3CCN(c4ccccc4F)CC3)cc2c1C,inactive: -4.32%
8,CCN(CC)S(=O)(=O)c1ccc(NC(=O)Cn2ncc3c([nH]c4ccccc43)c2=O)cc1,inactive: -10.2%
9,CC(Oc1ccccc1)C(=O)Nc1ccc(C(=O)OCc2cc(=O)n3nc(C(C)C)sc3n2)cc1 (centres undefined),inactive: -0.715%
10,CCOc1ccc(/C=C/c2nc(C#N)c(N3CCN(CC)CC3)o2)cc1,inactive: -0.734%
11,O=C(NCCc1ccc(F)cc1)C(=O)NCC(c1ccco1)S(=O)(=O)c1ccccc1 (centres undefined),inactive: -7.11%
12,Cc1cc(C)cc(OCC(=O)Nc2nc(-c3ccc(F)cc3)ns2)c1,inactive: -4.36%
13,Cc1ccccc1NC(=O)CSc1c(C(C)C)cnc2c1c(=O)n(C)c(=O)n2C,inactive: 5.27%
14,COC(=O)c1cc(NS(=O)(=O)c2ccc3c(c2)OCCO3)ccc1Cl,inactive: -3.92%
15,CCOc1ccccc1NC(=O)CSc1nc2ccccc2nc1N1CCOCC1,inactive: -9.84%
16,O=C(c1ccc(C(F)(F)F)cc1)N1CCC(c2noc(-c3ccc(S(=O)(=O)N4CCCC4)cc3)n2)CC1,inactive: -5.2%
17,NC(=O)c1ccccc1NC(=O)C1CCCN(c2ncnc3onc(-c4ccc(F)cc4)c23)C1 (centres undefined),inactive: 3.17%
18,O=C(c1cccs1)N(Cc1cccnc1)c1nc2c(Cl)cccc2s1,inactive: -1.75%
19,O=C(CCc1nc2cccnc2n1Cc1cccs1)Nc1cccc(C(F)(F)F)c1,inactive: 0.534%
